# In PubChem BioAssay (NCI):
#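 Exposure lasted 48 hours, with cells grown in 96-well plates and compounds tested at five concentrations. Definition used: TGI = concentration required for complete inhibition of growth.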 For part of its entries the source gives two or more results. Only these are listed. An entry can have further records. For some of these results: Records of one sample usually come from different ranges of test concentrations, which the source does not state; some values may only mark the edge of a range. For some of these results: The values listed for one entry repeat one measurement (runs, samples, wells, individuals or studies). What stands in brackets tells the records apart. A, B and so on number the origins entry by entry.
# How the values were obtained:
# Assay in all cases: NCI-60 cell line screen, 48 h
# SR leukemia = system: SR leukemia
# SK-MEL-28 melanoma = system: SK-MEL-28 melanoma
# SF-539 CNS = system: SF-539 CNS
# HCC-2998 colon = system: HCC-2998 colon
# SNB-19 CNS = system: SNB-19 CNS
# XF 498 CNS = system: XF 498 CNS
# SNB-78 CNS = system: SNB-78 CNS
structure (smiles),measurement,setting,value
NCCCN=c1ccc2c3c1c(O)c1c(O)ccc(=O)c1c3[nH]n2CCNCCO,TGI,SR leukemia,3.96 µM and > 250 µM
same,TGI,SK-MEL-28 melanoma,> 250 µM [mean of 2 tests] and 15.2 µM [mean of 4 tests]
COc1cc2c3cc1Oc1c(OC)c(OC)cc4c1C(Cc1ccc(O)c(c1)Oc1ccc(cc1)CC3N(C)CC2)N(C)CC4 (configuration not stated),TGI,SF-539 CNS,87.3 µM [sample A] and 8.43 µM [sample B]
COc1ccc(/C=C\c2cc(OC)c(OC)c(OC)c2)cc1,TGI,HCC-2998 colon,377 nM and > 100 µM
same,TGI,SNB-19 CNS,379 nM and > 100 µM
same,TGI,XF 498 CNS,65.8 nM and 19.9 µM
same,TGI,SNB-78 CNS,0.577 nM and 89.2 µM
